According to article PMC11633745:
These are yes or no findings as the source states them, for the method shown. In cells and extracts the contact can be indirect. Some entries that bind do so weakly or less than the wild type.

The chains behind the UniProt entries cited, without tags or fusion partners. Residues count along the entry.
UniProt Q03164, residues 3694-3969: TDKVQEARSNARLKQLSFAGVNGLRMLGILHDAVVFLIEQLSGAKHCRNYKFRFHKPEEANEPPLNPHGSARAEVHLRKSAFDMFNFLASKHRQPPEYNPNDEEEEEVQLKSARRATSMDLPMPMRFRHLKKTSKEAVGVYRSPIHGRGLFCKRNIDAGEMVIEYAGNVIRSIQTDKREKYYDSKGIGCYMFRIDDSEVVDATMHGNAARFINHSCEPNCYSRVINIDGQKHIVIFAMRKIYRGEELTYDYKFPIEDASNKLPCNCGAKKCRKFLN
UniProt Q9BSJ2: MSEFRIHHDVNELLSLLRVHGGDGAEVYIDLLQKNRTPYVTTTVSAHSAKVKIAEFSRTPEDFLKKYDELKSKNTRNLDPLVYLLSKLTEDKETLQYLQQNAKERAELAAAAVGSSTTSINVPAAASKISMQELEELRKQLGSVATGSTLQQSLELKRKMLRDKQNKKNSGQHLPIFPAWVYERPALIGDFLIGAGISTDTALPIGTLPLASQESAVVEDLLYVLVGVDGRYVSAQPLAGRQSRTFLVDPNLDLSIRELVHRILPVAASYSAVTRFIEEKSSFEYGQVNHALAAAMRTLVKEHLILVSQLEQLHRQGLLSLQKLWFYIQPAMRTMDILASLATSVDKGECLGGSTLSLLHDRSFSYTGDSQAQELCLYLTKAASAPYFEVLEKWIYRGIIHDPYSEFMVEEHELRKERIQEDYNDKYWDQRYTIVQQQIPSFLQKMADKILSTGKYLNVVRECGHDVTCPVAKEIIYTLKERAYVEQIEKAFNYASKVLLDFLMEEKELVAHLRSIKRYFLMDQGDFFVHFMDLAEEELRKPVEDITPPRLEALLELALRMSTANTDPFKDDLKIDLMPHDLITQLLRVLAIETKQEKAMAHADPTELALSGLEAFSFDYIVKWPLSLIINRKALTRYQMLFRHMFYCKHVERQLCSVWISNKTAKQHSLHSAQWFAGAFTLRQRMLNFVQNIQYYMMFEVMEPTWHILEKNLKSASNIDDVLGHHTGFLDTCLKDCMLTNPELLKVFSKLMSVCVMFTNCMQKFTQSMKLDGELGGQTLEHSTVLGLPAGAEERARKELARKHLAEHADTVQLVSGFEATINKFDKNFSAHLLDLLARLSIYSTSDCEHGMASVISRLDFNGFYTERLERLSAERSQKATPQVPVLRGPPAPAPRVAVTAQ
UniProt Q8NHV4: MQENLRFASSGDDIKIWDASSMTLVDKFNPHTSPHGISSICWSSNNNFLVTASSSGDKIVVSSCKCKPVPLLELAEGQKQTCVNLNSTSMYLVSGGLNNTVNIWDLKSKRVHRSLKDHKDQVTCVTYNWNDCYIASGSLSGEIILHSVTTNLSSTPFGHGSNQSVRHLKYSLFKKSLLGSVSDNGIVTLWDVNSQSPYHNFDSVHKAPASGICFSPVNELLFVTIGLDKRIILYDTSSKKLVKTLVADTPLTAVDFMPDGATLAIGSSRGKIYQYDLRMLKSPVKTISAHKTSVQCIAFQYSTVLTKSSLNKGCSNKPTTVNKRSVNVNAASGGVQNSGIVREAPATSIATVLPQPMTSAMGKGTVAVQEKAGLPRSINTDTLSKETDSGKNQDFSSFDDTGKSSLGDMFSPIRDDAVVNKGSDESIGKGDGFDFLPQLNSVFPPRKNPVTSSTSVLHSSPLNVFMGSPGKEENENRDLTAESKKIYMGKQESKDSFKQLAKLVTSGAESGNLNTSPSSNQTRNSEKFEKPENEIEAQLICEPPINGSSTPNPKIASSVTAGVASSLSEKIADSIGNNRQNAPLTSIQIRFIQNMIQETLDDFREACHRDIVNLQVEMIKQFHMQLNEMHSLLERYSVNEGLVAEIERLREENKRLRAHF

What was measured:
[1] = target: GST-MLLCD3 (3694 to 3969 amino acids) (human) (UniProt Q03164); test: pull-down; GST fusion protein bound to glutathione agarose beads incubated with HeLa whole-cell lysate for 3 hours, washed three times [15 mM tris (pH 7.4), 100 mM KCl, 0.02% NP-40, 1 mM DTT, 1 mM PMSF]; SDS-PAGE and Western blot; only the target purified
[2] = target: Cep72 (endogenous) (human (endogenous in HeLa)) (UniProt Q9P209); test: co-IP; endogenous proteins immunoprecipitated from precleared HeLa cell lysate with anti-MLLC, anti-WDR5 or anti-Cep72 overnight at 4°C, Protein A Sepharose beads; anti-immunoglobulin G as mock IP; Western blot
GST-Cep72 (human) = GST-Cep72 (human) (UniProt Q9P209); test: pull-down; GST fusion protein bound to glutathione agarose beads incubated with HeLa whole-cell lysate for 3 hours, washed three times [15 mM tris (pH 7.4), 100 mM KCl, 0.02% NP-40, 1 mM DTT, 1 mM PMSF]; SDS-PAGE and Western blot; only the target purified

| binding [1] | binding [2] | binding (GST-Cep72 (human)) | Substance |
| --- | --- | --- | --- |
| binds | – | – | Cep72 (endogenous) (from UniProt Q9P209 1-647) |
| binds | binds | binds | GCP2 (endogenous) (from UniProt Q9BSJ2 1-902) |
| no binding | – | no binding | NEDD1 (endogenous) (from UniProt Q8NHV4 1-660) |
